{"source": "the supplement of paper PMC11417369", "note": "± gives the standard deviation of the averaged measurements. The list shows a part of the results.", "data": [{"test_system": "PfAP2-I AP2 domain 3 (GST-tagged)", "experiment": "gcPBM binding intensity (ln(normalized median fluorescence intensity)); higher = stronger DNA binding", "outline": "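Alexa488 anti-GST antibody, scanned at 488 nm, detected GST-tagged P. falciparum DNA-binding domains that had been expressed in E. coli and incubated for 1 h on an Agilent 4 × 180k array. The array carried primer-extended double-stranded 36-bp intergenic genomic probes and negative controls. Binding intensity is the highest Masliner-normalised natural-log median intensity across replicate spots of either orientation of each probe.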", "values": [{"sequence": "ATAATAATATAAAAATGTACATATATTTATAATTGT [XGTACX_site3429]", "gcPBM binding intensity (ln)": "7.71 ± 0.54"}, {"sequence": "TCTTTGTATATATGTTCATTTGTAATATATATTCAT [TGCATGCA_negctrl_site467]", "gcPBM binding intensity (ln)": "7.47 ± 0.79"}, {"sequence": "TATTTGTGAAGAAATTGTACTCATATCTACATTTAT [XGTACX_site2245]", "gcPBM binding intensity (ln)": "7.63 ± 0.26"}, {"sequence": "CTCACAATACTTACATGTACATATTATATATATAAA [XGTACX_site1880]", "gcPBM binding intensity (ln)": "8.28 ± 0.49"}, {"sequence": "GTTGAAATAAAATTAGTGCATATATAAATATATATA", "gcPBM binding intensity (ln)": "10.2 ± 0.17"}, {"sequence": "AACTAATAGTATATTACATGCAAAAGTAAAAGTAAA [TGCATGCA_site411]", "gcPBM binding intensity (ln)": "8.02 ± 0.78"}, {"sequence": "ACTGAAAAAAGAAATACACACATTCTGGATCAGATA [CACACA_site7760]", "gcPBM binding intensity (ln)": "7.49 ± 0.63"}, {"sequence": "TCATTCTTGTGTTTATGTACACATATTTATATTGTA [XGTACX_site710]", "gcPBM binding intensity (ln)": "7.79 ± 0.4"}, {"sequence": "TTATCATTTTTGGAATGTACTTACATTAAATATTTA [XGTACX_site4034]", "gcPBM binding intensity (ln)": "7.63 ± 0.26"}, {"sequence": "TATATGCAAAATGTCACACATGTGATAAATACATAT [CACACA_site4302]", "gcPBM binding intensity (ln)": "7.94 ± 0.83"}, {"sequence": "GGAACCATCCAAAAAAAAAAAAAAAATAATAATAAT [CACACA_negctrl_site383]", "gcPBM binding intensity (ln)": "7.5 ± 0.85"}, {"sequence": "ACATGTACAGAAATTTATATATATATATATATATAT [CACACA_negctrl_site1584]", "gcPBM binding intensity (ln)": "9.38 ± 0.5"}, {"sequence": "ATTATTATGTATTGCCGTACACATATTATCACAGAA [XGTACX_site3740]", "gcPBM binding intensity (ln)": "8.05 ± 0.49"}, {"sequence": "TATAAATAAACATTTACACACTCTTATAATAAATAT [CACACA_site1679]", "gcPBM binding intensity (ln)": "7.52 ± 0.44"}, {"sequence": "TCTTCATATATAATTGTACACACAAAAACGACATTG [CACACA_site8645]", "gcPBM binding intensity (ln)": "8.15 ± 0.49"}, {"sequence": "TATTATAATTAATATACACACGCTTATATATATATA [CACACA_site75]", "gcPBM binding intensity (ln)": "9.105 ± 0.021"}, {"sequence": "TTTTTATAAAATTTTATGAGCTCGGAAAAAATAAAC [GTGCAC_negctrl_site637]", "gcPBM binding intensity (ln)": "8.49 ± 0.48"}, {"sequence": "TAATTATTTGCCCTTACTCTGAACATTCGGAATTTA [CACACA_negctrl_site1278]", "gcPBM binding intensity (ln)": "8.15 ± 0.28"}, {"sequence": "TTTTAATATTAAGATGTCTTTTACGTTTATTTTGTA [CACACA_negctrl_site765]", "gcPBM binding intensity (ln)": "7.58 ± 0.73"}, {"sequence": "ATTTACGCGCTTATTACACACACATACAAATAAGGA [CACACA_site9157]", "gcPBM binding intensity (ln)": "8.41 ± 0.25"}, {"sequence": "TTCTTTTTAAATTACACACACATATAAATATGTATA [CACACA_site7618]", "gcPBM binding intensity (ln)": "7.89 ± 0.58"}, {"sequence": "ATCTGCATATATATATGTACATATTTTAGAATGCAC [XGTACX_site708]", "gcPBM binding intensity (ln)": "9.71 ± 0.38"}, {"sequence": "TTTTTTTTATTTTGTTGTACGCTTATTTGTATATAT [XGTACX_site7325]", "gcPBM binding intensity (ln)": "8.04 ± 0.52"}, {"sequence": "TTTATGTGTTATAAATGTACATAATATAATTCGTAT [XGTACX_site3845]", "gcPBM binding intensity (ln)": "7.77 ± 0.48"}]}]}
